According to US20260217826A1 (YALE UNIVERSITY, published 2026):

B1: mouse anti-Vβ1 CAR (other)
chain: QLQLVQSGPELREPGESVKISCKASGYTFTDYIVHWVKQAPGKCLKWMGWINTYTGTPTYADDFEGRFVFSLEASASTANLQISNLKNEDTATYFCARSWRRGIRGIGFDWGQGVMVTVSSGSTSGSGKPGSGEGSTKGDVQMTQSPYNLAASPGESVSINCKASKSINKYLAWYQQKPGKPNKLLIYDGSTLQSGIPSRFSGSGSGTDFTLTIRGLEPEDFGLYYCQQHNEYPPTFGCGTKLELKGTTTTPAPRPPTPAPTIASQPLSLRPEACRPAAGGAVHTRGLDFACDRRPPSKPFWVLVVVGGVLACYSLLVTVAFIIFWVRKRGRKKLLYIFKQPFMRPVQTTQEEDGCSCRFPEEEEGGCELASL[letters of about 120 residues not shown]
B2: mouse anti-Vβ13.6 CAR (other)
chain: EVQLQQSGPELVKPGASVKISCKASGYSFTGNYMNWVKQSPEKCLEWIGEINPNTGGTTYNQKLKAKATLTVDKSSSTAYMQLKSLTSEDSAVYYCARSEYYGIYYYAMDYWGQGTSVTVSSGSTSGSGKPGSGEGSTKGDIQMTQSPASLSASVGETVTMTCRTSENIYSNLVWYQQKQGKSPQFLVYAATNLAEGVPSRFSGSGSGTQFSLKINSLQPEDFGSYYCQHFYGTPRTFGCGTKLEIKGTTTTPAPRPPTPAPTIASQPLSLRPEACRPAAGGAVHTRGLDFACDRRPPSKPFWVLVVVGGVLACYSLLVTVAFIIFWVRKRGRKKLLYIFKQPFMRPVQTTQEEDGCSCRFPEEEEGGCELASL[letters of about 120 residues not shown]

Experiments:
TCR Vβ1 = test: cell-based or functional assay
TCR Vβ13.6 = test: cell-based or functional assay

Binder | % area under "CD69 activation" (CD69 on CAR Jurkat effector cells after overnight co-culture with Jurkat target cells, flow cytometry) (TCR Vβ1) | % area under "CD69 activation" (CD69 on CAR Jurkat effector cells after overnight co-culture with Jurkat target cells, flow cytometry) (TCR Vβ13.6)
B1 | 24.7% | –
B2 | – | 48.2%
